Data reported in PubChem BioAssay AID686970 (National Center for Advancing Translational Sciences (NCATS), 2013).
Hit rate of the full screen: of about 360,000 compounds, about 6,000 (1.7%) were called active. Not shown: some 8% with an inconclusive outcome. Calls follow the shape of the dose curve; as a rule, active = well fitted cell-killing curve with a large enough effect; inconclusive = small, poorly fitted or top-dose-only effect, or effect the other way; inactive = flat fitted curve, though single readings scatter. This is a selection; strong and weak results do not stand in their true shares.

experiment: qHTS for induction of synthetic lethality in tumor cells producing 2HG: qHTS for the HT-1080-NT fibrosarcoma cell line; conditions: HT-1080-NT fibrosarcoma viability, CellTiter-Glo ATP luminescence, 48 h; series mostly up to 46.1 µM; activity, negative = less viability: at the top concentration; also: nearly all actives have a fitted effect of over 55% in size
From the text: Unbiased genomic sequencing for 22 glioma genomes found recurrent mutation of IDH1 on chromosome 2q33, a gene encoding the cytosolic isoform of IDH1 associated with the tricarboxylic acid cycle (TCA) that catalyzes the oxidative decarboxylation of isocitrate, yielding alpha-ketoglutarate and CO2 via NADP+ to NADPH conversion. Subsequent studies confirmed the recurrent IDH mutations in up to 70% of secondary gliomas and in 10% of AML cases. In addition, the somatic mutation of cancer-associated IDH1 is a point mutation resulting in various amino-acid substituents at Arginine132 (IDH1 R132), a key residue found in the enzyme's active site that when mutated, results in the loss-of-function in metabolizing isocitrate but confers a gain-of-function to produce the oncometabolite 2-hydroxyglutarate (2HG). This in effect defines IDH1 as an oncogene and provides an extraordinary opportunity to discover chemical probes against mutant IDH1 that may translate into much needed new therapies for glioma and AML patients.
This assay aims to perform a synthetic lethal screen for chemical probes specific for 2HG-producing tumor cells using matched paired cell lines (1) HT-1080-NT fibrosarcoma cell line that overproduces 2HG and (2) HT-1080-IDH1KD cell line which has IDH1 expression knocked-down. Desirable compounds are toxic to the NT fibrosarcoma cells but not to the IDH1KD cell line. The data in this AID corresponds to the results of the qHTS against the HT-1080-NT fibrosarcoma cell line.
[1] Dang L, Jin S, Su SM. IDH mutations in glioma and acute myeloid leukemia. Trends of Mol Med. 2010; 16(9): 387-97.
[2] Dang L et al. Cancer-associated IDH1 mutations produce 2-hydroxyglutarate. Nature. 2010; 465(7300):966.
NIH Molecular Libraries Probe Production Centers Network [MLPCN]
NIH Chemical Genomics Center [NCGC]
Assay Submitter (PI): Lenny Dang Ph.D., Agios Pharmaceuticals
Suspensions of trypsinized HT-1080-NT cells were dispensed into white, tissue culture-treated, solid 1536-well plates at 5uL/well (750 cells/well final concentration) in RPMI medium supplemented with 5% FBS. Plates were incubated at 37 degrees C for 2 hours, after which 23 nL of compounds or DMSO were delivered to each well using a pin tool. Plates were then incubated at 37 degrees C for an additional 48 hours. CellTiter-Glo viability reagent (Promega) was dispensed into wells (2.5uL/well) and incubated at room temperature for 10 minutes. The plates were measured on a PerkinElmer ViewLux plate reader for luminescent signal (clear filter, 1 sec exp). DMSO-treated control wells and media-only (no cells) control wells were used to normalize %Activity of identified toxic compounds; DMSO-treated wells corresponded to 0%Activity (100% viability), while media-only controls were used to normalize 100%Activity (0% viability).
Concentration-response curves were fitted to the signals arising from the resulting luminescence. The concentration-effect curves were then classified based on curve quality (r2), response magnitude and degree of measured activity, and compounds were subsequently categorized based on their curve class.
Potency is read from the fitted curve at half-maximal effect.

Structure (SMILES)	activity, negative = less viability	Potency
COc1ccc2c(c1OC)C(=O)OC2C1c2cc3c(cc2CCN1C)OCO3 (stereo not drawn)	inactive: 6.36%	
C[CH2][Hg][S]c1ccccc1C(=O)O		active: 2.31 µM
CC[C@@H](CO)NC(=O)[C@@H]1C=C2c3cccc4c3c(cn4C)C[C@H]2N(C)C1	inactive: -19%	
C[C@]12CC[C@H](O)C[C@H]1CC[C@@H]1[C@@H]2CC[C@]2(C)C(=O)CC[C@@H]12	inactive: 2.66%	
N#C/C(=C\c1ccc(O)cc1)C(=O)O (tested in a mixture with another compound)	inactive: -0.408%	
C=CC[C@@H](CC/C=C/C=C/CC/C=C\[C@@H]1CSC([C@@H]2C[C@@H]2C)=N1)OC		active: 2.31 µM
CC12CC3CC(C)(C1)CC(N)(C3)C2	inactive: -4.06%	
CNC(=O)Oc1ccc2c(c1)[C@]1(C)CCN(C)[C@@H]1N2C	inactive: 17.6%	
CC(=O)OCC[N+](C)(C)C		inactive
COc1ccc2[nH]c3c(c2c1)CCNC3C (stereo not drawn)	inactive: -0.7%	
C[C@]12CC[C@@H](O)C[C@H]1CC[C@@H]1[C@@H]2CC[C@]2(C)C(=O)CC[C@@H]12	inactive: -0.108%	
CCCC[N+]1(C)C2CC(OC(=O)C(CO)c3ccccc3)CC1C1OC12 (stereo not drawn)	inactive: 22.9%	
COc1ccc2c(c1OC)C(=O)O[C@H]2[C@@H]1c2cc3c(cc2CCN1C)OCO3	inactive: 19.7%	
O=C(O)c1cc[c]([Hg][Cl])cc1		active: 16.4 µM
COc1nc(C)nc(Cl)c1NC1=NCCN1	inactive: -1.9%	
CCN1/C(=C/C=C/C2=[N+](CC)c3ccccc3C2(C)C)C(C)(C)c2ccccc21		active: 9.2 µM
NC(N)=N/N=C/c1c(Cl)cccc1Cl	inactive: -19.3%	
CCC(COC(=O)c1cc(OC)c(OC)c(OC)c1)(c1ccccc1)N(C)C (stereo not drawn)	inactive: 3.29%	
c1ccc(-c2cc(-c3ccccc3)[n+](-c3ccccc3)c(-c3ccccc3)c2)cc1		active: 3.66 µM
CC[C@H]1CN2CCC1C[C@@H]2[C@@H](O)c1ccnc2ccc(OC)cc12 (stereo partly drawn)	inactive: -6.2%	
Cn1cccc1/C=C1/C(=O)NC(=O)N(Cc2ccccc2)C1=O	inactive: -17.4%	
Nc1ncc2[nH]cnc2n1	inactive: 0.393%	
CN(C)[C@@H]1C(=O)C(C(N)=O)=C(O)[C@@]2(O)C(=O)C3=C(O)c4c(O)ccc(Cl)c4[C@@](C)(O)[C@H]3C[C@@H]12	inactive: -8.43%	
